Assay results: the supplement of paper PMC3334620
Whole data set: some 33,000 sequences, median “E-score (-0.5 to 0.5)” near -0.054, cut for the highest 2% near 0.39. The list shows a part of the results.

Target: Ylr278c (UniProt Q05854)
Assay: PBM E-score (8-mer binding enrichment) (E-score (-0.5 to 0.5)); higher = stronger / more preferred TF binding; most listed sequences are background and not binding sites
Conditions: protein concentration: 200 nM; construct: GST-DNA-binding domain
Procedure, shortened: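 Using PURExpress in vitro transcription/translation, GST-tagged yeast transcription factors were made in full-length or DNA-binding-domain form. These were applied at about 100-200 nM to double-stranded universal all-10-mer Agilent arrays, and bound protein was detected with fluorescent anti-GST. Scans were normalised with masliner before the Universal PBM Analysis Suite assigned E-scores to ungapped eight-base words pooled with their reverse complements.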

Sequence | PBM E-score
TATACGCA | 0.0919
AGTCGCGC | 0.193
CCGATGAC | 0.299
CGTCCTGC | -0.151
CGATGACC | 0.183
ACAGCGAT | -0.0558
ACCAATTC | 0.0245
CGGCTCCA | 0.155
ATTCCGCC | 0.418
CAAACAGA | -0.08
CCAGTGCG | -0.0115
CATGTTGC | -0.0404
ATCTAGGA | -0.0971
ATGATAAG | -0.0364
AATAAGGT | 0.0972
ACAAGCGT | -0.189
CCAACCCA | -0.161
ATTCAGGC | -0.121
CCACGGTC | -0.157
ACGACCAT | -0.302
AAAGGCGA | -0.234
GGCGCTAC | -0.0688
ACACGGTG | 0.0947
CGGATCGA | 0.19
GTGCATCA | -0.165

Sequence | PBM E-score
AGAGCGTC | -0.285
GGCAGCTA | -0.109
AGGTCAAT | -0.205
CAGCCAAC | -0.0434
CTATATAA | -0.288
CAGAACTG | -0.0814
AATATTCT | -0.0411
AGCGGTAT | 0.0951
CGGACCCA | 0.332
AAGGCAGG | -0.0925
AACGTGAG | -0.24
ACTGTACA | -0.38
TAAAAAAA | -0.0419
GGTTGAGA | 0.157
TATCTGGA | -0.0948
ACTTCTAC | -0.164
CGCCGACA | 0.281
CACGCCGC | 0.151
AGCGTGTC | -0.234
ATTCCTAG | -0.0912
ACGGCTTG | -0.0376
CGGTGTGC | 0.102
ACACCAAT | 0.00077
ACCAGGAT | -0.0342
CCTCCGGC | 0.448

Sequence | PBM E-score
CTATATGA | -0.0348
TCCTGACA | -0.164
CCTCTACG | -0.249
GCAGATCA | -0.14
ATTATAGG | 0.121
AAACCAAC | -0.0742
CAAGTGCA | -0.362
ATCGTATA | -0.00578
AATTACAC | 0.0834
GCAATTAC | 0.0799
TAATCAAA | 0.112
AAACCTAT | -0.23
CAATAAGG | -0.12
ACTGACCA | -0.254
ATGGCGGC | 0.217
AGGCAACA | -0.2
AGGCGGAA | 0.304
GGGCGGTA | 0.241
TCGCACAA | -0.0415
ATACATTG | -0.106
ATGTAGGC | 0.0824
CGAATTAG | -0.0466
GCGGACTA | 0.384
CACCTTCG | -0.00119
GGGTATAC | 0.108

Sequence | PBM E-score
TCGCTGAA | -0.0509
ATAAGTGG | -0.145
AACGTGCG | 0.051
CTACTTCA | -0.119
CGCACCAC | 0.0811
CCCACCCG | 0.282
AACTTCGT | -0.123
GTTTTTGA | -0.0766
ATGTACTC | -0.0177
ACCCAATG | -0.243
ACGGCATC | 0.0823
GTTGTGCA | -0.199
AAGACGGT | -0.232
CCGGTGGC | 0.304
GCCTTCTA | -0.167
AGCCTCAA | -0.12
ACCTTATC | 0.0556
ACACCTGA | -0.118
ACAGGCAG | -0.256
GTTAGCGA | 0.0834
AAGGAATC | -0.167
ATTACCCG | 0.213
ATGCTTCC | -0.0282
ACACGGCA | 0.0815
CTCCGCTC | 0.378

Sequence | PBM E-score
TCAGCTCA | 0.0396
CACTGACA | -0.174
CTGTTCAC | -0.336
CATCAATG | -0.175
CTCCGGTA | 0.47
AAAGTCTG | -0.318
CCTTACCC | -0.146
CTTCTATA | -0.247
CATACGAG | -0.26
AATACCCT | 0.0258
GCGCAGGA | 0.0608
AAAGCTTG | -0.23
GGGTTCTA | -0.0323
AAAAGCCC | 0.151
AGTGAGGA | -0.255
AAGGTTGT | -0.221
CCCGCACA | 0.263
TTAACTAA | 0.0202
AACCTGGG | -0.0591
GCAAAGTA | -0.0936
TCCCCACA | -0.215
ACGGATCA | 0.199
CCGGTATA | 0.316
AAATTCTA | -0.257
GCTTTGCC | -0.108

Sequence | PBM E-score
AGCGGCGA | 0.292
AGTCAATA | -0.0726
GCTTCCAA | -0.0933
ACGTATAG | -0.122
AACTTACC | -0.0568
GACTAAAA | 0.0741
CTAACAAC | -0.0734
GTTTCCAA | -0.215
AGTCCCTA | -0.108
GGGTCAAA | 0.0394
ATGCGCAG | -0.0382
ATAGGATA | 0.0548
CGGGGCGC | 0.333
ACGGCGGG | 0.207
GGAGCAAA | 0.176
CAAGCCTC | -0.0522
TTCAGAAA | -0.0962
AACAGGCC | 0.0266
ATGTAATG | 0.083
CCAAACCC | 0.124
ACCTCAAT | -0.178
TAATTGGA | -0.0323
AAGTTTCG | 0.039
AAGTGATA | -0.189
AGTACTTG | -0.052

Sequence | PBM E-score
CGAATATA | 0.146
CGATCAGA | -0.167
CACGGAGA | 0.429
AACATGTT | -0.146
CGGGCACA | 0.0593
CTCCAGGA | -0.0335
GCCGATAA | 0.301
CGACCGCC | 0.104
TAAAATCA | -0.062
GCAGGGGC | -0.113
AGAAACCG | 0.0862
GTCTGATA | -0.261
TATTGGAA | -0.256
ACTTTACA | 0.00586
ATTGCCGG | 0.379
CAGCGCAC | -0.0458
AGGCTCGG | 0.135
CGCTCTAC | -0.131
CGGATAAA | 0.368
CCCGACTA | 0.196
TATGATAA | -0.0321
AAACGCAT | -0.123
